In the RNAGym collection of RNA variant scans (doi:10.7554/elife.90254):
The source gives no read counts; variants with many changes may rest on few reads.

B1: OR4K15 (parent)
chain: GUUAACGGUCAUAGGCCAUGGAAACUAGGAGCACCAUUUCGCUGCCAGUGAAGAAAUGAACAAAGAAAAUCUGGGCCAGGCAGGCAUCAAAAGAAAUAGUCUUGCGCUCAACCAGAAAGUCUGUAAUCAUUUUAAGGGUA

Variants of: B1
Test: self-cleavage, relative activity (ratio to wild type); higher = more cleavage; in vitro, sequencing; the parent is a self-cleaving ribozyme

Variant | self-cleavage
GUUAACGGUCAUAGGCCAUGGAAGCUAGGAGCACCAUUUCGCUGCCAGUGAAGAAAUGAACAAAGAAGAUCUGGGCCAGGCAGGCAUCAAAAGAAAUAGUCUUGCCCUCAACCAGAAAGUCUGUAAUCAUUUUAAGGGUA [A24G A68G G106C] | 0.01
GUUAACGGUCAUAGGCCAUGGAAGCUAGGAGCACCAUUUCGCUGCCAGUGAAGAAAUGAACAAAGAGAAUCCGGGCCAGGCAGGCAUCAAAAGUAAUAGUCUUGCGCUCGACCAGAAAGUCUGUAAUCAUUUUAAGGGUA [A24G A67G U72C A94U A110G] | 0.07
GUUAACGGUCAUAGGCCAUGGAAGCUAGGAGCACCAUUUCGCUGCCAGUGAAGAAAUGAACAAAGAAGAUCUGGGCCAGGCAGGCAUCAAAAGAAAUAGUCUUGCGCUCAACCAGAGAGUCUGUAAUCAUUUUAAGGGUA [A24G A68G A117G] | 2.09
GUUAACGGUCAUAGGCCAUGGAAGCUAGGAGCACCAUUUCGCUGCCAGUGAAGAAAUGAACCAAGAAAAUCUGGGCCGGGCAGGCAUCAAGAGAAAUAGUCUUGCGCUCAACCAGAAAGUCUGUAAUCAUUUUAAGGGUA [A24G A62C A78G A91G] | 0.03
GUUAACGGUCAUAGGCCAUGGAAGCUAGGAGCACCAUUUCGCUGCCAGUGAAGAGAUGAACAAAGAAAAUCUGGGCCAGGCAGGCAUCAAAAGAAAUAGUCUUGCGCUCAACCAGAAAGUCCGUAAUCAUUUUAAGGGUG [A24G A55G U122C A140G] | 1.27
GUUAACGGUCAUAGGCCAUGGAAGCUAGGAGCACCAUUUCGCUGCCAGUGAAGAAAUGAACGAAGAAAAUAUGGGCCAGGCAGGCAUCAAAAGAAAUAGUCUUGCGCACAACCAGAAAGUCUGUAGUCAUUUUAAGGGUA [A24G A62G C71A U108A A126G] | 0
GUUAACGGUCAUAGGCCAUGGAAGCUAGGAGCACCAUUUCGCUGCCAGUGAAGAAAUGAGCAAAGAAAAUCUGGGCCAGGCAGGCAUCUAAAGAAAUAGUCUUGCGCUCAACCAGAAAGUCUGUAAUCAUUUUAAGGGUA [A24G A60G A89U] | 1.06
GUUAACGGUCAUAGGCCAUGGAAGCUAGGAGCACCAUUUCGCUGCCAGUGAAGAAAUGAACAAGGAAAAUCUGGGCCAGGCAGCCAUCAAAAGAAAUAGUCUUGCGCUCAACCAGUAAGUCUGUAAUCAUUUCAAGGGUA [A24G A64G G84C A116U U133C] | 0.03
GUUAACGGUCAUAGGCCAUGGAAGCUAGGAGCACCAUUUCGCUGCCAGUGAAGAAAUGAACGAAGAAGAUCUGGGCCAGGCAGGCAUCAAAAGAAAUAGUCUUGCGCUCAACUAGAAAGUCUGUAAUCAUUUUAAGGGUA [A24G A62G A68G C113U] | 0.03
GUUAACGGUCAUAGGCCAUGGAAGCUAGGAGCACCAUUUCGCUGCCAGUGAAGAGAUGAACAAAGAAAAUCUGUGCCAGGCAGGCAUCAAAAGAAAUAGUCUUGCGCUCAACCAGAAAGUCUGUAAUCAUUUUAAGGGUA [A24G A55G G74U] | 0.08
GUUAACGGUCAUAGGCCAUGGAAGCUAGGAGCACCAUUUCGCUGCCAGUGAAGAUAUGAACAAAGAAAAUCUGGGCCAGGCAGGCAUCGAAAGAAGUAGUCUUGCGCUCAACCAGAAAGUCUGUAAUCAUUUUAAGGGUA [A24G A55U A89G A96G] | 0.84
GUUAACGGUCAUAGGCCAUGGAAGCUAGGAGCACCAUUUCGCUGCCAGUGAAGGAAUGAACAAAGAAAAUCUGGGCCAGGCAGGCAUCAAAAGAAAUAGUCUUGCGCUCAACCAGGAAGUCUGUAAUCAUUUUAAGGGUA [A24G A54G A116G] | 1.32
GUUAACGGUCAUAGGCCAUGGAAGCUAGGAGCACCAUUUCGCUGCCAGUGAAGGAAUGAACAAAGAAAAUCUGGGCCAGGCAGGUAUCAAAAGAAAUAGUCUUGCGCUCAACCAGAAAGUCUGUAAUCAUUUUAAGGGUA [A24G A54G C85U] | 0.42
GUUAACGGUCAUAGGCCAUGGAAGCUAGGAGCACCAUUUCGCUGCCAGUGAAGAAAUGAACAAAGAGAAUCUGGGCCAGGCAGGCAUCAAAAGAAAUAGUCUUGCGCUCAACCAGAAAGUCUGUAAACAUUUUAAGGGUA [A24G A67G U127A] | 2.52
GUUAACGGUCAUAGGCCAUGGAAGCUAGGAGCACCAUUUCGCUGCCAGUGAAGAAAUGAACGAAGAAAAUCUGGGCCAGGCAGGCAUCAAAAGAAAUAGUCUCGCGCUCGACCAGAGAGUCUGUACUCAUUUUAAGGGUA [A24G A62G U103C A110G A117G A126C] | 0.08
GUUAACGGUCAUAGGCCAUGGAAGCUAGGAGCACCAUUUCGCUGCCAGUGAAGAUAUGGACAAAGAAAACCUGGGCCAGGCAGGCAUCAAAAGAAAUAGUCUUGCGCUCAACCAGAAAGUCUGUAAUCAUUUUAAGGGUA [A24G A55U A59G U70C] | 0.44
GUUAACGGUCAUAGGCCAUGGAAGCUAGGAGCACCAUUUCGCUGCCAGUGAAGAAAUGAACGAAGAAAAUCUGGGCCAGGCAGGCAUCAAAAGAAAUAGCCUUGCGCUCAACCAGAAAGUCUGUAAUCAUUUUAAGGGUA [A24G A62G U100C] | 0.89
GUUAACGGUCAUAGGCCAUGGAAGCUAGGAGCACCAUUUCGCUGCCAGUGAAGAAAUGAACAAAGAGAAUCUGGACCAGGCAGGCAUCGAAAGAAGUAGUCUUGCGCUCAACCAGAAAGUCCGUAAUCAUUCUAAGGGUA [A24G A67G G75A A89G A96G U122C U132C] | 0.04
GUUAACGGUCAUAGGCCAUGGAAGCUAGGAGCACCAUUUCGCUGCCAGUGAAGGAAUGAACAAAGAAAAUCUGGGCCAGGCUGGCAUCAAAGGAAAUAGUCUUGCGCUCAACCAGAAAGUCUGUAAUCAUUUUAAGGGUA [A24G A54G A82U A92G] | 0.36
GUUAACGGUCAUAGGCCAUGGAAGCUAGGAGCACCAUUUCGCUGCCAGUGAAGAAAUGUACAAAGAAAAUCUGGGCCAGGCAGGCAUCAAGAGAAAUAGACUUGCGCUCAACCAGAAAGUCUGUAAUCAUUUUAAGGGUA [A24G A59U A91G U100A] | 0.53
GUUAACGGUCAUAGGCCAUGGAAGCUAGGAGCACCAUUUCGCUGCCAGUGAAGAAAUGAACUAAGAAAAUCUGGGCCAGGCAGGCAUCAAAAGAAAUAGUCUUGCGCUCAACCAGGAAGUCUGUAAUCAUUUUAAGGGUA [A24G A62U A116G] | 0.76

Variant | self-cleavage
GUUAACGGUCAUAGGCCAUGGAAGCUAGGAGCACCAUUUCGCUGCCAGUGAAGAAAUGAACAAAGAAUAUCUGGGCCAGGCAGGCAUCAAAAGAAAUAGUCUUGCGCUCAACCAGAAAGUCUGUGAUCAUUUUAAGGGUA [A24G A68U A125G] | 0.41
GUUAACGGUCAUAGGCCAUGGAAGCUAGGAGCACCAUUUCGCUGCCAGUGAAGGAAUGAACAAAGAAAAUCUGGGCCAGGCUGGCAUCAAAAGAAAUAGUCUUGCGCUCAACCAGAAGGUCUGUAAUCAUUUUAAGGGUA [A24G A54G A82U A118G] | 0.02
GUUAACGGUCAUAGGCCAUGGAAGCUAGGAGCACCAUUUCGCUGCCAGUGAAGAAAUGAACAAAGAAAGACUGGGCCAGGCAGGCAUCAAAAGAAAUAGUCUUGCGCUCAACCAGAAAGUCUGUAAUCAUUUUAAGGGUA [A24G A69G U70A] | 1.12
GUUAACGGUCAUAGGCCAUGGAAGCUAGGAGCACCAUUUCGCUGCCAGUGAAGUAAUGAACAAAGAAAAUCUGGGCCAGGCAGGCAUCAAGAGAAAUAGUCUUGCGCUCAACCAGAAAGUCUGUAAUCAUUUUAAGGGUG [A24G A54U A91G A140G] | 1.37
GUUAACGGUCAUAGGCCAUGGAAGCUAGGAGCACCAUUUCGCUGCCAGUGAAGAAAUGAACAAAGAAAGUCUGGGCCAGGCAGGCAUCAAAAGAAAUAGUCUUGCGCUCAACCAGAAAGUCUGUAAUCAUUUUAGGGGCA [A24G A69G A135G U139C] | 1.73
GUUAACGGUCAUAGGCCAUGGAAGCUAGGAGCACCAUUUCGCUGCCAGUGAAGAACUGAGCAAAGAAAAUCUGGGCCAGGCAGGCAUCAAAAGAAAUAGUCUUGCGCUCAACCAGAAAGUCUGUAAUCAUUUUAAGGGUA [A24G A56C A60G] | 0.81
GUUAACGGUCAUAGGCCAUGGAAGCUAGGAGCACCAUUUCGCUGCCAGUGAAGAGAUGAACAAAGAAAAUCUGGGCCAGGCAGGCAUCAAAAGAAAUAGUCUUGCGCUCAACCAGACAGUCUGUAAUCAUUUUAAGGGUA [A24G A55G A117C] | 1.09
GUUAACGGUCAUAGGCCAUGGAAGCUAGGAGCACCAUUUCGCUGCCAGUGAAGAAAUGAACAAAGGAAAUCUGGGCCAGGCAGGCAUCAAAAGAAAUAGUCCUGCGCUCAACCAGAAAGUCUGUAAUCAUUUUAAGGGUA [A24G A66G U102C] | 1.18
GUUAACGGUCAUAGGCCAUGGAAGCUAGGAGCACCAUUUCGCUGCCAGUGAAGAAAUGAACAAAGAAAAUCUGGGCCGGGCAGGCAUCAAAAGAAAUAGUCUUGCGCUCAACCAGAAGGCCUGUAAUCAUUUUAAGGGUA [A24G A78G A118G U120C] | 0.11
GUUAACGGUCAUAGGCCAUGGAAGCUAGGAGCACCAUUUCGCUGCCAGUGAAGAAGUGAACAAAGGAAAUCUGGGCCAGGCAGGCAUCAAAAGAAAUAGUCUUGCGCUCAACCAGAAAGUCUGUAAUCAGUUUAAGGGUA [A24G A56G A66G U130G] | 1.26
GUUAACGGUCAUAGGCCAUGGAAGCUAGGAGCACCAUUUCGCUGCCAGUGAAGAAAUGAUCAAAGAAAAUCUGGGCCAGGCAGGCAUCAAAAGGAAUAGUCUCGCGCUCAACCAGAAAGUCUGUAAUCAUUUUAAGGGUA [A24G A60U A94G U103C] | 1.31
GUUAACGGUCAUAGGCCAUGGAAGCUAGGAGCACCAUUUCGCUGCCAGUGAAGGAAUGAACAAAGAAAAUCUGGGCCAGGCAGGCAUCAAAAGAAAUAGUCUUGCGCCCAACCAGAGAGUCUGUAAUCAUUUUAAGGGUA [A24G A54G U108C A117G] | 0.02
GUUAACGGUCAUAGGCCAUGGAAGCUAGGAGCACCAUUUCGCUGCCAGUGAAGAAAUGAACAAAGACAAUCUGGGCCAGGCAGGCACCAAAAGAAAUAGUCUUGCGCUCAACCAGAAAGUCUGUAAUCAUUUUAAGGGUA [A24G A67C U87C] | 1.34
GUUAACGGUCAUAGGCCAUGGAAGCUAGGAGCACCAUUUCGCUGCCAGUGAAGAAAUGAACAAAGAAGAUCUGGGCCAGGCAGGCAUCAAAAGAAGUAGUCUUGCGCUCAACCAGAAAGUCUGUAAUCAUUUUAAGGGUA [A24G A68G A96G] | 1.11
GUUAACGGUCAUAGGCCAUGGAAGCUAGGAGCACCAUUUCGCUGCCAGUGAAGAAAUGGACAAAGAAGAUCUGGGCCAGGCAGGCAUCAAAAGAAAUAGUCUUGCGCUCAACCAGAAAGUCUGUAAUCAUCUUAAGGGUA [A24G A59G A68G U131C] | 0.91
GUUAACGGUCAUAGGCCAUGGAAGCUAGGAGCACCAUUUCGCUGCCAGUGAAGAAAUGAACAAAGAAAGUCUGGGCCAGGCAGGCAUCAAAAGAAAUAGUCUUGCGCUCAACCAGAAAGUCUGUAAUCAUCUUAAGGGUA [A24G A69G U131C] | 0.98
GUUAACGGUCAUAGGCCAUGGAAGCUAGGAGCACCAUUUCGCUGCCAGUGAAGGAAUGAACAAAGAAAAUCUGGGCCAGGCAGGCAUCAAGAGAAAUAGUCUUGCGCUCAACCAGAAAGUCUGUAAUCAUUUUGAGGGUA [A24G A54G A91G A134G] | 1.11
GUUAACGGUCAUAGGCCAUGGAAGCUAGGAGCACCAUUUCGCUGCCAGUGAAGGAAUGAACAAAGAGCAUCUGGGCCAGGCAGGCAUCAAAAGAAAUAGUCUUGCGCUCAACCAGAAAGUCUGUAAUCAUUUUAAGGGUA [A24G A54G A67G A68C] | 0.95
GUUAACGGUCAUAGGCCAUGGAAGCUAGGAGCACCAUUUCGCUGCCAGUGAAGAAAUGGACAAAGAAAAUCUGGGCCAGGCAGGCAUCAAAAGAAGUAGUCUUGCGCUCAACCAGAAAGUCCGUAAUCAUUUUAAGGGUA [A24G A59G A96G U122C] | 2.44
GUUAACGGUCAUAGGCCAUGGAAGCUAGGAGCACCAUUUCGCUGCCAGUGAAGAAAUGAGCAAAGAAAAUCUGGGCCAGGCAGGCGUCAAAAGAAACGGUCUUGCGCUCAACCAGAAAGUCUGUAAUCAUUUUAAGGGUA [A24G A60G A86G U97C A98G] | 1.12
